Some of the results follow. Sequences were assembled here from the parent chain. Inactive controls read about 0.05.
B1: TEV protease; numbered along this chain (parent)
chain: MGESLFKGPRDYNPISSSICHLTNESDGHTTSLYGIGFGPFIITNKHLFRRNNGTLVVQSLHGVFKVKDTTTLQQHLVDGRDMIIIRMPKDFPPFPQKLKFREPQREERICLVTTNFQTKSMSSMVSDTSCTFPSGDGIFWKHWIQTKDGQCGSPLVSTRDGFIVGIHSASNFTNTNNYFTSVPKNFMELLTNQEAQQWVSGWRLNADSVLWGGHKVFMVKPEEPFQPVKEATQL

Variants of: B1
Experiment: raw area under fraction-flipped curve 0-4 h after induction (AUC4h, not background-subtracted), DNA-recorder readout of cleavage of the substrate (dimensionless); higher = more cleavage of the substrate by the protease variant
Details: temperature: 34 °C; time window: 0-4 h after rhamnose induction
Protocol: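 In vivo DNA recorder in E. coli TOP10(DE3) ΔrhaA at 34 °C. Each TEVp single-site mutant (parent TEVp 0) is paired with a single-site variant of the 7-mer TEVs (canonical ENLYFQ|S). The substrate sits between flexible linkers in a Bxb1-sfGFP-TEVs-SsrA fusion, so cleavage stabilises Bxb1 and speeds flipping of a recombination array, read by NGS. The value is the raw area under the fraction-flipped curve over 0-4 h after rhamnose induction (AUC4h), with ≥20 reads per time point. It is not background-subtracted; inactive controls average about 0.047.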
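Further: Bxb1 expression induced with 0.2% (w/v) L-rhamnose at OD600 near 0.5, cultures sampled hourly, flipped fraction per protease–substrate barcode pair counted by paired-end Illumina sequencing.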

Row | Variant | area with substrate EALYFQS | area with substrate ECLYFQS | area with substrate EDLYFQS | area with substrate EFLYFQS | area with substrate EGLYFQS | area with substrate EHLYFQS | area with substrate EILYFQS | area with substrate EKLYFQS | area with substrate ELLYFQS | area with substrate EPLYFQS | area with substrate EQLYFQS | area with substrate ESLYFQS | area with substrate ETLYFQS | area with substrate EVLYFQS | area with substrate EWLYFQS | area with substrate EELYFQS | area with substrate EMLYFQS | area with substrate ERLYFQS | area with substrate EYLYFQS
1 | MGESLFKGPRDHNPISSSICHLTNESDGHTTSLYGIGFGPFIITNKHLFRRNNGTLVVQSLHGVFKVKDTTTLQQHLVDGRDMIIIRMPKDFPPFPQKLKFREPQREERICLVTTNFQTKSMSSMVSDTSCTFPSGDGIFWKHWIQTKDGQCGSPLVSTRDGFIVGIHSASNFTNTNNYFTSVPKNFMELLTNQEAQQWVSGWRLNADSVLWGGHKVFMVKPEEPFQPVKEATQL [Y12H] | 0.122 | 0.0911 | 0.109 | 0.0958 | 0.103 | 0.149 | 0.113 | 0.131 | 0.0917 | 0.117 | 0.129 | 0.0983 | 0.104 | 0.0887 | 0.115 |  |  |  | 
2 | MGESLFKGPRDWNPISSSICHLTNESDGHTTSLYGIGFGPFIITNKHLFRRNNGTLVVQSLHGVFKVKDTTTLQQHLVDGRDMIIIRMPKDFPPFPQKLKFREPQREERICLVTTNFQTKSMSSMVSDTSCTFPSGDGIFWKHWIQTKDGQCGSPLVSTRDGFIVGIHSASNFTNTNNYFTSVPKNFMELLTNQEAQQWVSGWRLNADSVLWGGHKVFMVKPEEPFQPVKEATQL [Y12W] | 0.108 | 0.0922 | 0.107 |  | 0.0962 | 0.0947 | 0.0952 | 0.107 |  | 0.112 | 0.0906 | 0.0896 |  | 0.0884 |  | 0.104 | 0.115 | 0.0986 | 0.0908
3 | MGESLFKGPRDKNPISSSICHLTNESDGHTTSLYGIGFGPFIITNKHLFRRNNGTLVVQSLHGVFKVKDTTTLQQHLVDGRDMIIIRMPKDFPPFPQKLKFREPQREERICLVTTNFQTKSMSSMVSDTSCTFPSGDGIFWKHWIQTKDGQCGSPLVSTRDGFIVGIHSASNFTNTNNYFTSVPKNFMELLTNQEAQQWVSGWRLNADSVLWGGHKVFMVKPEEPFQPVKEATQL [Y12K] | 0.116 | 0.114 | 0.111 |  | 0.0925 | 0.0928 | 0.0796 | 0.0949 | 0.075 | 0.132 | 0.0998 | 0.0878 | 0.101 |  | 0.102 | 0.09 | 0.107 | 0.0989 | 0.118
4 | MGESLFKGPRDSNPISSSICHLTNESDGHTTSLYGIGFGPFIITNKHLFRRNNGTLVVQSLHGVFKVKDTTTLQQHLVDGRDMIIIRMPKDFPPFPQKLKFREPQREERICLVTTNFQTKSMSSMVSDTSCTFPSGDGIFWKHWIQTKDGQCGSPLVSTRDGFIVGIHSASNFTNTNNYFTSVPKNFMELLTNQEAQQWVSGWRLNADSVLWGGHKVFMVKPEEPFQPVKEATQL [Y12S] | 0.115 | 0.0878 | 0.106 |  | 0.0838 |  | 0.0823 | 0.0902 | 0.0869 | 0.0984 | 0.0981 | 0.0893 | 0.115 | 0.0885 |  | 0.081 | 0.116 | 0.0903 | 
5 | MGESLFKGPRDYNCISSSICHLTNESDGHTTSLYGIGFGPFIITNKHLFRRNNGTLVVQSLHGVFKVKDTTTLQQHLVDGRDMIIIRMPKDFPPFPQKLKFREPQREERICLVTTNFQTKSMSSMVSDTSCTFPSGDGIFWKHWIQTKDGQCGSPLVSTRDGFIVGIHSASNFTNTNNYFTSVPKNFMELLTNQEAQQWVSGWRLNADSVLWGGHKVFMVKPEEPFQPVKEATQL [P14C] | 0.106 | 0.0898 | 0.105 |  | 0.0934 | 0.0912 | 0.0911 | 0.0932 |  | 0.106 | 0.106 | 0.106 | 0.124 | 0.0917 | 0.099 | 0.0851 | 0.0959 | 0.0938 | 0.0777
6 | MGESLFKGPRDYKPISSSICHLTNESDGHTTSLYGIGFGPFIITNKHLFRRNNGTLVVQSLHGVFKVKDTTTLQQHLVDGRDMIIIRMPKDFPPFPQKLKFREPQREERICLVTTNFQTKSMSSMVSDTSCTFPSGDGIFWKHWIQTKDGQCGSPLVSTRDGFIVGIHSASNFTNTNNYFTSVPKNFMELLTNQEAQQWVSGWRLNADSVLWGGHKVFMVKPEEPFQPVKEATQL [N13K] | 0.0984 | 0.0838 | 0.11 |  | 0.089 |  | 0.101 | 0.0822 |  | 0.0893 | 0.112 | 0.0897 | 0.113 | 0.0636 | 0.0963 |  |  | 0.105 | 
7 | MGESLFKGPRDYRPISSSICHLTNESDGHTTSLYGIGFGPFIITNKHLFRRNNGTLVVQSLHGVFKVKDTTTLQQHLVDGRDMIIIRMPKDFPPFPQKLKFREPQREERICLVTTNFQTKSMSSMVSDTSCTFPSGDGIFWKHWIQTKDGQCGSPLVSTRDGFIVGIHSASNFTNTNNYFTSVPKNFMELLTNQEAQQWVSGWRLNADSVLWGGHKVFMVKPEEPFQPVKEATQL [N13R] | 0.112 | 0.103 |  | 0.0986 | 0.0938 | 0.153 | 0.101 | 0.117 |  |  |  | 0.0968 | 0.125 | 0.112 |  | 0.117 | 0.132 | 0.104 | 0.116
8 | MGESLFKGPGDYNPISSSICHLTNESDGHTTSLYGIGFGPFIITNKHLFRRNNGTLVVQSLHGVFKVKDTTTLQQHLVDGRDMIIIRMPKDFPPFPQKLKFREPQREERICLVTTNFQTKSMSSMVSDTSCTFPSGDGIFWKHWIQTKDGQCGSPLVSTRDGFIVGIHSASNFTNTNNYFTSVPKNFMELLTNQEAQQWVSGWRLNADSVLWGGHKVFMVKPEEPFQPVKEATQL [R10G] | 0.121 | 0.0884 | 0.113 |  | 0.0441 | 0.0737 | 0.089 | 0.11 |  | 0.112 | 0.115 | 0.108 |  | 0.104 |  | 0.118 | 0.115 | 0.0784 | 0.0921

Reference: the supplement of paper PMC12217912
